Results: the supplement of paper PMC5499739
The full ranking holds about 16,000 sequences; the median of “Z-score” is about -0.37, and the highest 2% start at about 3.2. This is one part of the list.

What follows are sequences tested on RBM10 RRM1-ZnF (GST-tagged construct) (assay: RNAcompete 7-mer binding Z-score; higher = stronger binding preference).
In short: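 A designed pool of 241 399 RNAs, each up to 41 nt and transcribed from microarray-derived DNA templates, was used at 1.5 nmol with 20 pmol of GST-tagged RBM10 constructs. The mixture, in 1 ml Hepes pH 7.8 buffer with KCl, NaCl, glycerol, DTT, BSA and glutathione Sepharose beads, was held 30 min at 4°C and then washed four times for 2 min at 4°C. Bound RNA was read out by microarray hybridisation, and enrichment of each heptamer motif was scored as a one-sided Z-score over the probes carrying it.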

Row | Sequence | RNAcompete 7-mer binding Z-score
1 | UAUUCGA | -0.5
2 | GCGGGUU | 2.76
3 | CCACUUC | -0.743
4 | GCCGCUC | -0.649
5 | ACCUUUA | -0.919
6 | GACGAAU | -0.0382
7 | UCAGGUA | 0.628
8 | GUCACCU | -0.48
9 | CGUACUG | -0.493
10 | UACACCC | -0.698
11 | AAUCGCC | -0.88
12 | CGUUCAU | -0.724
13 | ACCUUUG | -0.88
14 | ACUACAG | -0.47
15 | CAGUCUA | -0.454
16 | UAGAGCU | -0.272
17 | AAAACGG | 1.4
18 | AUAGUCU | -0.623
19 | GUAACAU | -0.00896
20 | AUCUGGG | 0.443
21 | UACGGAA | 0.699
22 | CCAUCCA | -0.717
23 | GUGCGCC | 0.0593

Row | Sequence | RNAcompete 7-mer binding Z-score
24 | AGUCAGG | 1.09
25 | UAUCGAU | -0.513
26 | UGAUGCU | -0.275
27 | UCCAUAG | -0.73
28 | GUUUUUA | -0.363
29 | CCGGCGU | -0.353
30 | AUAGUUC | -0.724
31 | UCUUAGC | -0.737
32 | UGUGCCC | -0.548
33 | CCUAAUA | -0.763
34 | UCCGUUA | -0.776
35 | UGGCAGA | 0.92
36 | AAUAUAA | -0.197
37 | GGGAGCG | 3.35
38 | GGUCUCU | -0.405
39 | GCCUAUA | -0.623
40 | CGAUCGG | 0.128
41 | CUCUUGG | -0.259
42 | ACAUCAA | -0.519
43 | AACUCUA | -0.854
44 | CACAUGC | -0.584
45 | ACCCCGU | -0.386
46 | GUCGGAG | 1.13

Row | Sequence | RNAcompete 7-mer binding Z-score
47 | GAGUCUA | -0.165
48 | GGUUUCA | 0.277
49 | GAUCGAA | -0.0479
50 | GAAUUUC | -0.607
51 | CCCGCCA | -0.34
52 | UCAGUGA | 0.209
53 | UAAUCCA | -0.73
54 | ACUGCGA | -0.36
55 | AAAACUG | -0.0187
56 | AGUCUUC | -0.652
57 | GCUCGCC | -0.467
58 | CGACAGU | -0.418
59 | CCGCGAA | -0.561
60 | GCGCUCA | -0.477
61 | UAUUCCG | -0.698
62 | GCGUUAA | -0.188
63 | UUAUAGC | -0.513
64 | GUGGGAG | 4.08
65 | UGGAUAU | 1.17
66 | GUGAGGA | 2.69
67 | UUGUAUA | -0.526
68 | CAGACAA | -0.415
69 | GUGUGAA | 0.975

Row | Sequence | RNAcompete 7-mer binding Z-score
70 | CGAAAGC | -0.487
71 | ACAUCGU | -0.526
72 | UCCGUCA | -0.746
73 | GGCGCCG | -0.0122
74 | GAAUACG | 0.55
75 | UAAAAAU | -0.461
76 | GGUAACG | 1.84
77 | AUCAACG | -0.483
78 | GAGACGU | 0.228
79 | UUCAGAG | -0.532
80 | GCGAGAU | 0.446
81 | UGCCUGA | -0.539
82 | ACUCUGU | -0.847
83 | GUGUCGG | 1.03
84 | GAAGUGC | 0.29
85 | CCGCUCU | -0.782
86 | CCUAGAA | -0.688
87 | CUCUGGC | -0.451
88 | CAUAGGA | 0.54
89 | CAUAUUA | -0.642
90 | GGAGAUU | 0.914
91 | GAGGCAU | 0.582
92 | ACGAGUA | 0.153
